{"source": "patent US20190343964A1", "about": "(SHIZUOKA PERFECTURE, published 2019)", "binders": {"B1": {"name": "scFv-scFv according to the present invention (bispecific antibody)", "chain": "NIQMTQSPSSLAVSAGEKVTMSCKSSHAVLYSSNQKNYLAWYQQKPGQSPKLLIYWASTRDSGVPDRFTGGGSGTDFTLTITNIQPEDLAVYYCHQYLSSWTFGGGTKVEIKGGSGGGGSGGGGSGGEFQLQQSGPELVKPGASVKMSCKASGYIFTSYVVHWVKQKPGQGLEWIGYINPYNDGTKYSEKFKGKATLTSDKSSSTAYMELSSLTSDDSAVYYCARDGVYGYHAMDCWGQGTSVTVSSGGSGGGGSGGGGSGGQVQLQQSGAELARPGASVKMS[about 80 residues not shown]WGQGTTLTVSSGGSGGGGSGGGGSGGQIVLTQSPAIMSASPGEKVTMTCSASSSVSYMNWYQQKSGTSPKRWIYDTSKLASGVPAHFRGSGSGTSYSLTISGMEAEDAATYYCQQWSSNPFTFGSGTKLEIKGGGHHHHHH"}}, "molecular_target": "T1, B7-H4 expressed on the membrane surface of cancer cells (human, UniProt Q7Z7D3 25-282)", "T1 sequence (looked up)": "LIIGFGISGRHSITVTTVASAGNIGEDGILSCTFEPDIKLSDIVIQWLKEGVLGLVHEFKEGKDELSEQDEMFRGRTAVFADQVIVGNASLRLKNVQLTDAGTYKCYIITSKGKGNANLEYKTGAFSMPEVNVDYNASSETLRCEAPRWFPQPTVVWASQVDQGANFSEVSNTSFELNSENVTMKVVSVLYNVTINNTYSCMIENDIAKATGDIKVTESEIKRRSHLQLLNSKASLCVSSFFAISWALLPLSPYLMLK", "experiment": "cell-based or functional assay", "data": [{"binder": "B1", "values": [{"measurement": "50% maximum effective concentration (EC50) of cytotoxicity (% Lysis) to MDA-MB-468 cells, LDH release, with human peripheral blood mononuclear cells, 16 hours", "result": 0.068, "unit": "µg/mL"}]}]}
